Source: the RNAGym collection of RNA variant scans (doi:10.7554/elife.90254)
The source gives no read counts; variants with many changes may rest on few reads.

B1: LINE1-mini (parent)
chain: GGCAGAGCUCAACACAGCGUGGCAAAGUGGCUGUGGCUAGACUGCC

Variants of: B1
Test: self-cleavage, relative activity (ratio to wild type); higher = more cleavage; in vitro, sequencing; the parent is a self-cleaving ribozyme

Row | Variant | self-cleavage
1 | GGCAGAGCUCAACACCCCGUGGCAAAUUGGAUGAGGCUAGACUGCC [A16C G17C G27U C31A U34A] | 0.02
2 | GGCAGAGCUCAACAUAGCGUGGCAAAGUGGCAGUGGCUAGACAGCC [C15U U32A U43A] | 0.11
3 | GGCAGAGCUCAACACCGCUUGGAAAAAUGGCUGUAGCUAGACUGCC [A16C G19U C23A G27A G35A] | 0.25
4 | GGCAGAGCUCAACACCGCGUGGAAAAGUGACUGUGGCUAUACUGCC [A16C C23A G30A G40U] | 0.08
5 | GGCAGAGCUCAACACCGCGUGGCGAAGUGGCGGUGGCUAGACUGCC [A16C A24G U32G] | 0.2
6 | GGCAGAGCUCAACACCGGGUGACCUAGUGGCUGUGGCCAGACUGCC [A16C C18G G22A A24C A25U U38C] | 0.05
7 | GGCAGAGCUCAACAUAGCGUGGCAAAGGGGCCGUGGCUAGCCUGCC [C15U U28G U32C A41C] | 0.05
8 | GGCAGAGCUCAACACCAGGUGGCAAAGUGGCUGUGGCUAAACUGCC [A16C G17A C18G G40A] | 0.06
9 | GGCAGAGCUCAACACCACGUGGCAAAGUGGCUGUGGCGAGACUGCC [A16C G17A U38G] | 0.03
10 | GGCAGAGCUCAACAUAGCGUGGCAAAGUGGCUGUGGCAAGAUUCCC [C15U U38A C42U G44C] | 0.27
11 | GGCAGAGCUCAACACCGCAAAGCAAAGUGGCUGUGGCUAGACUGGC [A16C G19A U20A G21A C45G] | 0.05
12 | GGCAGAGCUCAACACCUCGUGGCCAAGUGGCGGUGGCUAGACUGCC [A16C G17U A24C U32G] | 0.06
13 | GGCAGAGCUCAACACCGAGUGGCAAAGUGGCUGUCUCUAGACUGCC [A16C C18A G35C G36U] | 0.03
14 | GGCAGAGCUCAACAUAGCGGGGCAAAGUGGCUGUGGGUAGACUGCC [C15U U20G C37G] | 0.01
15 | GGCAGAGCUCAACACCGGGUGGCAAAGUUGGUGUGGCUAGACUGCC [A16C C18G G29U C31G] | 0
16 | GGCAGAGCUCAACACCGCGUGGCAAAGUGGCUGUGGCUUGAUUGCC [A16C A39U C42U] | 0.01
17 | GGCAGAGCUCAACACCGAGUGGCAAAGUGGCUGUGGCUAGAGUUCC [A16C C18A C42G G44U] | 0.12
18 | GGCAGAGCUCAACACCGCGUCGCAAAGCGGCUGUGGCUAGACUUCC [A16C G21C U28C G44U] | 0.02
19 | GGCAGAGCUCAACAUAGCGUGGCAAAGCGGCUGUUGCGAGACUGCC [C15U U28C G35U U38G] | 0.01

Row | Variant | self-cleavage
20 | GGCAGAGCUCAACACCGCGUGGCAAAGUGGAGGUGGCUAGACUGCC [A16C C31A U32G] | 0.09
21 | GGCAGAGCUCAACAUAGCGUGGCAAAGUGGCUGGGGCUAGACUGCU [C15U U34G C46U] | 0.01
22 | GGCAGAGCUCAACACCGCAUGGCAAAGUGGCUGUGGCUACACUGCC [A16C G19A G40C] | 0.22
23 | GGCAGAGCUCAACACCACGUGGCAAAGUGGCUGAGGCUAGACUGCC [A16C G17A U34A] | 0.02
24 | GGCAGAGCUCAACAUAGCGUGGCAAAGUGGCCGUGGCUAGGCUGCC [C15U U32C A41G] | 0.02
25 | GGCAGAGCUCAACACCGCACGGCAAAGUGGCUGUGGCUAGACUGCC [A16C G19A U20C] | 0.28
26 | GGCAGAGCUCAACACCCCGUGGCAAACUGGCUGUGUCUAGACUGCC [A16C G17C G27C G36U] | 0.19
27 | GGCAGAGCUCAACACCGCGUGGCAAAGUGGCUGUGGCUUGACUGAC [A16C A39U C45A] | 0.05
28 | GGCAGAGCUCAACACCGCGUGGCAACGUGGCUGUGGCCAGACUGCC [A16C A26C U38C] | 0.15
29 | GGCAGAGCUCAACAUAGCGUGGCAAAGGGGCUGUGGCUAGACCGCC [C15U U28G U43C] | 0.05
30 | GGCAGAGCUCAACAUAGCGUGGCAAAGUGGCGGUGGCUACACUGCC [C15U U32G G40C] | 0.08
31 | GGCAGAGCUCAACACCGCGUGGCCAAGUGGCUAUUGCUAGACUGCC [A16C A24C G33A G35U] | 0.08
32 | GGCAGAGCUCAACACCGCUGGCCAAAGUGGAUGUGGCUAGACUGCC [A16C G19U U20G G22C C31A] | 0.01
33 | GGCAGAGCUCAACACCGCGUGGCAAAGUGGGCGUGGCUAGACUGCC [A16C C31G U32C] | 0.05
34 | GGCAGAGCUCAACACCGCGUGGCAACGUGGCUGUGGCUAGCCUGCC [A16C A26C A41C] | 0.01
35 | GGCAGAGCUCAACACCGCGUGGCAAUGUGGCUGUGGGUAGACUGCC [A16C A26U C37G] | 0.06
36 | GGCAGAGCUCAACACCGCCUUGCAAAGUGGCUGUGGCUUGACUGCC [A16C G19C G21U A39U] | 0.42
37 | GGCAGAGCUCAACACCGCAUGGCAAAGUGGCUGUGGGUAGACUGCC [A16C G19A C37G] | 0.02
38 | GGCAGAGCUCAACAUAGCGUGGCAAAGUGGCUGAGCCUAGACUGCC [C15U U34A G36C] | 0.04

Row | Variant | self-cleavage
39 | GGCAGAGCUCAACACCGCGUGGCAAAGUGGUUAGGGCUAGACUGCC [A16C C31U G33A U34G] | 0
40 | GGCAGAGCUCAACACCGGGUGGCAAAGUGGCUGUGGGUAGUCUGCC [A16C C18G C37G A41U] | 0.07
41 | GGCAGAGCUCAACACCACGUGACACAGUGGCUUUGGCUAGUCUGCC [A16C G17A G22A A25C G33U A41U] | 0
42 | GGCAGAGCUCAACAUAGCGUGGCAAAGUGGCCUUGGCUAGGCUGCC [C15U U32C G33U A41G] | 0.07
43 | GGCAGAGCUCAACAUAGCGUGGCAAAGCGUCUGUGGCUAGACUGCC [C15U U28C G30U] | 0.22
44 | GGCAGAGCUCAACACCGCGUGGCUUAGUGGCUGUGGCUAGACUGCC [A16C A24U A25U] | 0.07
45 | GGCAGAGCUCAACACCGCGUGGCACACUUGCUGUGGCUAGACUGCC [A16C A25C G27C G29U] | 0.81
46 | GGCAGAGCUCAACACCGCGUGGUAAAGUGGCUGUGGCCAGACUGUC [A16C C23U U38C C45U] | 0.08
47 | GGCAGAGCUCAACACCACGUGGAAAAGUGGCUGUGGCUAGAUUGCC [A16C G17A C23A C42U] | 0.06
48 | GGCAGAGCUCAACACCGACUGGCAAAGUGGCUGUGUCUAGACUGCC [A16C C18A G19C G36U] | 0.07
49 | GGCAGAGCUCAACACCGCUUGGCACAGUGGCUGUGGCUGGACUGCC [A16C G19U A25C A39G] | 0.05
50 | GGCAGAGCUCAACACCGAGUGGCAAAGUGGCUGCGGCUAGACUGUC [A16C C18A U34C C45U] | 0.02
51 | GGCAGAGCUCAACAUAGCGUGGCAAAGUGGCUGUGGCCAGCCUGCC [C15U U38C A41C] | 0.17
52 | GGCAGAGCUCAACACCCCGUGGCAAAGUGGCUGUGUCUAGUCUGCC [A16C G17C G36U A41U] | 0.09
53 | GGCAGAGCUCAACAUAGCGUGGCAAAGGGGCAAUGGCUAGACUGCC [C15U U28G U32A G33A] | 0.02
54 | GGCAGAGCUCAACACCACGUGGCAAAGUGGCUAUGGCUAGACUGCC [A16C G17A G33A] | 0.02
55 | GGCAGAGCUCAACACCGCGUGGCAAAGUGGGUGUGGCUAGAAUGCC [A16C C31G C42A] | 0
56 | GGCAGAGCUCAACACCGCGUGGAAAAGUGCCUGUGGCUUGACUCCC [A16C C23A G30C A39U G44C] | 0
